Measurements published in PubChem BioAssay (NCI).
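Compound exposure: 48 hours, 5 concentrations, 96-well plates. Abbreviation: GI50, concentration required for 50% inhibition of growth. The concentration for full growth arrest is given as TGI.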

system: NCI-H322M lung; test: DTP human tumour cell line panel, 48 h

SMILES | TGI [µM] | GI50 [µM]
O=[N+]([O-])c1ccc(CN=C2NNS(=O)(=O)c3ccccc32)cc1 | > 100 | 
O=C1CCCC2=C1CC1=C(CCCC1=O)N2c1ccc([N+](=O)[O-])cc1 | > 100 | 
S=C(Nc1ccc2c(c1)oc1ccccc12)c1cccs1 | > 100 | 
O=C(Cc1ccccc1)N/N=C(/c1nc2ccc([N+](=O)[O-])cc2[nH]c1=O)C(O)c1ccc(C(O)/C(=N/NC(=O)Cc2ccccc2)c2nc3ccc([N+](=O)[O-])cc3[nH]c2=O)cc1 (stereo not given) | > 100 | 
CSC1=C(C#N)C(=O)N(c2ccc(C)cc2)C(=O)C1C#N (stereo not given) | > 100 | 
CCCCCCc1cc2cc(-c3csc(/C=C/c4ccccc4)n3)c(=O)oc2cc1O | > 100 | 40.7
O=C(N/C=C/C=C/Sc1ccccc1)OCc1ccccc1 | > 100 | 
NC(CO)c1ccc(OCc2ccccc2)cc1 (stereo not given) | > 100 | 
O=C(O)c1ccc(Oc2nc3ccccc3s2)cc1 | > 100 | 
CCOC(=O)[C@@H](C)C[C@H](Cc1ccccc1)NC(=O)c1csc([C@@H](C[C@H](C(C)C)N(C)C(=O)[C@@H](NC(=O)[C@H]2C[C@H](O)CCN2C)C(C)C)OC(C)=O)n1 | > 16.7 | 0.00839
O=[N+]([O-])c1ccc(/C(Cl)=C/c2ccc(/C=C(\Cl)c3ccc([N+](=O)[O-])cc3[N+](=O)[O-])cc2)c([N+](=O)[O-])c1 | > 100 | 
COC(=O)[C@]1(C)CCC[C@]2(C)[C@@H](CCC(=O)C(C)C)[C@]3(C=O)O[C@@H]3C[C@H]21 | > 100 | 
CC(=O)SC(SC(C)=O)SC(C)=O | > 100 | 
O=c1c(O)cc2c(O)oc3c(=O)c(O)c(O)c4c(O)oc1c2c43 | > 100 | 
COC(=O)CC(CNC(=O)OCc1ccccc1)OCc1ccc(OC)cc1 (stereo not given) | > 100 | 
Cn1c(NCC(CN2CCCC2)OC(=O)c2ccccc2)cc(=O)n(C)c1=O (stereo not given) | > 100 | > 100
Cc1[nH]c2nc3c(ncn3COCCO)c(=O)n2c1C(c1ccccc1)(c1ccccc1)c1ccccc1 | 28.7 | 
CCC(c1ccc(OC)cc1)C1NC(=S)NC1=O (stereo not given) | > 50 | 
C=C1CC(C)(COc2cc(=O)oc3ccccc23)OC1=O (stereo not given) | 21.6 | 
CCCn1c(=O)c2nn3c(=O)n(CCC)c(=O)c3nn2c1=O | > 100 | 
O=C(Cc1ccccc1)N/N=C(/c1nc2ccc([N+](=O)[O-])cc2[nH]c1=O)C(O)c1ccccc1Cl (stereo not given) | > 100 | 
CCOC(=O)Nc1n[nH]nc1Cl | > 100 | 
Cc1ccc(S(=O)(=O)ON2C(=O)c3c(N)c(C#N)c(-c4ccccc4)c(-c4ccccc4)c3C2=O)cc1 | > 100 | 
O=C(Cc1ccc(Nc2ccnc(C(F)(F)F)c2)cc1)N/N=C/c1ccccc1O | > 80.4 | 2.26
C1=C(c2ccccc2)O[C@H](COCc2ccccc2)C(OCc2ccccc2)[C@@H]1OCc1ccccc1 (stereo not given in full) | > 10 | 

SMILES | TGI [µM] | GI50 [µM]
O=Cc1ccc(-c2ccc(-c3ccc(C=O)o3)[se]2)o1 | > 100 | > 64.1
N#C/C(=C\c1ccc(F)cc1)n1nc2cccc(F)c2n1 | > 100 | 4.91
c1ccc2nn(C3CCCO3)nc2c1 (stereo not given) | > 100 | 
O=C(NCCc1ccccc1)c1cc(/C=C/c2cc(O)ccc2O)ccc1O | 27.1 | 
O=C(Oc1c(Br)cc(Br)cc1C(=O)Oc1ccccc1)C(=O)Oc1c(Br)cc(Br)cc1C(=O)Oc1ccccc1 | > 100 | 
CC1(C)OC2C(CO)OC(n3ccc(N)nc3=O)C2O1 (stereo not given) | > 100 | 
O=C1CCN2C(=N1)Sc1ccccc12 | > 100 | 
Cn1nc(-c2ccccc2)c2c(-c3ccccc3)c3cc(Cl)ccc3nc21 | > 100 | 
CCCCN(CC)CCCCCCCCCCN1CCCc2cc(OC)ccc21 | 37.7 | 8.9
O=c1nc(N2CCCC2)nc(N2CCCC2)s1 | > 100 | 
C#CCn1c(=O)c2cccnc2n(CC#C)c1=O | > 100 | 
O=C1CCSc2nc(-c3ccc4c(c3)OCO4)nn21 | > 10 | 
COc1ccc(/C=C/C(=O)c2ccc(Nc3nc(Nc4ccc(F)cc4)nc(Nc4ccc(Cl)cc4)n3)cc2)cc1 | > 100 | > 100
O=C1CC(C(OCc2ccccc2)C(OCc2ccccc2)C(OCc2ccccc2)C(COCc2ccccc2)OCc2ccccc2)CC(=O)N1 (stereo not given) | > 100 | 
C=C1c2[nH]c3ccccc3c2CC(C(=O)O)N1C(O)c1ccc(S(=O)(=O)O)cc1 (stereo not given) | > 100 | 
C#C[C@]1(O)[C@@H](CO)O[C@@H](n2ccc(N)nc2=O)[C@@H]1O | 1.44 | 
CCCCCCCCCCCCCCCC(=O)Nc1ccn(C2CCC(COP(=O)(O)OCC3OC(n4cc(F)c(=O)[nH]c4=O)CC3OC(C)=O)O2)c(=O)n1 (stereo not given) | > 100 | 
CN(C)c1ccc(/C=c2\sc3nnc(-c4cccnc4)n3c2=O)cc1 | > 100 | 
C(=N\NC1=NCCN1)/c1cccc2cc3ccncc3nc12 | 16.7 | 
CC1CCC2CC1NC(=O)CCOCCC(=O)NC2(C)C (stereo not given) | > 100 | 
Fc1ccc(C2SCc3nc4ccccc4n32)cc1F (stereo not given) | > 100 | 
CC(=O)O[C@H]1CC[C@@]2(C)C(=CC[C@@H]3[C@@H]2CC[C@](C)(c2nnc(C)o2)[C@H]3CC#N)C1 | > 100 | 
CCN1C(=O)N(CC)C2C1NC(=S)N2/N=C/C=C/c1ccccc1OC (stereo not given) | > 100 | 0.0589
CCCCCC#COC1CC(C)CC[C@@H]1C(C)C (stereo not given in full) | > 100 | 
Cn1c(=O)c2[nH]c(CCCc3ccc([N+](=O)[O-])cc3)nc2n(C)c1=O | > 100 | 

SMILES | TGI [µM] | GI50 [µM]
C/C(=N\O)C1CC2C=C(C#N)C1N(Cc1ccccc1)C2 (stereo not given) | > 100 | 
Cc1c2ccccc2c(C2C3C(=O)N(c4cccc5ccccc45)C(=O)C3ON2Cc2ccc(CC(N)=O)cc2)c2ccccc12 (stereo not given) | > 50 | 
CC(=O)Oc1ccc(Nn2c3ccccc3c3ccccc32)c(C)c1 | > 100 | 
C=C1C(=O)c2cc3c(cc2C(c2cc(OC)c(OC)c(OC)c2)[C@@H]1C(=O)O)OCO3 (stereo not given in full) | > 100 | 
C=C(CCC/C(C)=C/C=C/[C@H](C)CCCc1ccoc1)C[C@@H]1OC(=O)[C@H](C)[C@@H]1O | 10.3 | 
CCOC(=O)/C(=C/c1ccccc1Br)P(=O)(OCC)OCC | 13.4 | 
COC(=O)[C@@H](OC(C)=O)[C@@H](OC(C)=O)c1nnc2ccc(Cl)nn12 | > 100 | 
COc1cc2c(cc1O)Cc1c-2[n+](C)cc2cc(OC)c(OC)cc12 | > 100 | 
O=C1c2cccnc2C(=O)c2c1c(C(=O)OCCc1ccccn1)c1ccccn21 | 1.97 | 0.044
CCN(CC)CC(O)COc1c(Br)c(Br)c(Br)c2c1OC(C)(C)C2 (stereo not given) | 29.3 | 14.1
Brc1ccc(Nc2nc3ccccc3nc2Nc2ccc(Br)cc2)cc1 | 10.1 | 2.07
COc1ccc2[nH]c3c4c(cc(-c5ccccc5)c3c2c1)C(=O)N(c1ccccc1)C4=O | > 100 | 
CC(Cc1cccc2c1Nc1ccccc1S2)N(C)CCO (stereo not given) | > 100 | 
Cc1ccc(NC(=O)/C(=N\NC(N)=S)C(C#N)c2ccccc2C)cc1C (stereo not given) | > 100 | 
NC(Cc1ccccc1)c1nn[nH]n1 (stereo not given) | > 100 | 
N#Cc1ccc(C(C2C(=O)NC(=O)NC2=O)C2C(=O)NC(=O)NC2=O)cc1 | > 100 | 
O=C1C(=C([O-])c2ccccc2)C(=O)c2ccccc21.O=C1C(=C([O-])c2ccccc2)C(=O)c2ccccc21.[Co+2] | > 100 | > 100
CC(C)(CN1CCCCC1)C(=O)CC(SCCN)c1ccc(Cl)cc1 (stereo not given) | 6.42 | 
N#Cc1c(-c2ccccc2)cc(-c2cccs2)c(C#N)c1N | > 100 | 
O=C(O)c1cccc(OCCOc2cccc(C(=O)O)c2[N+](=O)[O-])c1[N+](=O)[O-] | > 100 | 
NS(=O)(=O)c1ccc(N=C2C(=O)Nc3ccccc32)cc1 | > 100 | 
N#CC(/C(=N/NC(N)=S)C(=O)Nc1cccc(Cl)c1)c1ccccc1 (stereo not given) | > 100 | 
COc1ccc(-n2c(Cn3nnc(-c4cccnc4)n3)nn(C3OC(COC(=O)c4ccccc4)C(OC(=O)c4ccccc4)C3OC(=O)c3ccccc3)c2=S)cc1 (stereo not given) | > 100 | 
CCOC(=O)c1cn(CC)c2ccc3ccsc3c2c1=O | > 100 | 
C/C1=C/C[C@@H](/C(C)=C/c2csc(C)n2)OC(=O)C[C@H](O)C(C)(C)C(=O)[C@H](C)[C@@H](O)[C@@H](C)CCC1 | 0.186 | 

SMILES | TGI [µM] | GI50 [µM]
O=c1[nH]c2ccccc2n2cc3ccccc3c12 | 46.2 | 23.8
CCCCN(CCCC)CC(C(=O)Nc1ccc([N+](=O)[O-])cc1[N+](=O)[O-])/C(C)=N\NC(=O)C[N+](C)(C)C (stereo not given) | > 100 | 
COc1cc2c3c(n(CCCN4CCCNCC4)c(=O)c2cc1OC)-c1cc2c(cc1C3=O)OCO2 | 9.28 | 2.55
CCOc1cc(/C=C/C(=O)C(C(=O)/C=C/c2ccc(OC(=O)CNc3nnc(C)s3)c(OCC)c2)C(=O)CNc2nnc(C)s2)ccc1OC(=O)CNc1nnc(C)s1 | 14.8 | 4.08
CCC(C)CC(C)C(=O)c1c(O)ccn(O)c1=O (stereo not given) | > 100 | 2.25
CCOC(=O)C1=CNC(C(=O)OCC)C1c1cccn1-c1ccccc1 (stereo not given) | > 100 | 
O=C(Nc1ccc(I)cc1)c1cccc([N+](=O)[O-])c1O | > 100 | 3.99
COc1ccccc1NC(=O)C(=O)Cc1cnc2ccccc2n1 | > 100 | 
COc1cc2c(cc1OCCCCn1c(-c3cccs3)nc3ccccc31)N=C[C@@H]1CCCN1C2=O | 8.43 | 2.7
Nc1nc(N)c2ncn(-c3ccccc3)c2n1 | > 100 | 
[N-]=[N+]=CC(=O)OCC1NC(=O)C(COC(=O)C=[N+]=[N-])NC1=O (stereo not given) | > 100 | 
CN(C)CCN(C)C(=O)C1CCCN1C(=O)OCc1ccccc1 (stereo not given) | > 100 | 
FC(F)(F)c1cc(-c2ncn(/C=C\c3nnco3)n2)cc(C(F)(F)F)c1 | > 100 | 0.0834
COc1ncc(-c2ccc3nccc(C#CCN4CCN(S(C)(=O)=O)CC4)c3c2)cc1NS(=O)(=O)c1ccc(F)cc1F | 2.35 | 0.0529
CCCCOC(=O)NC(Nc1ccc(S(=O)(=O)Nc2ncccn2)cc1)(C(F)(F)F)C(F)(F)F | > 100 | 
CC(C)CC(NC=O)C(=O)NC(Cc1ccccc1)NC(=O)CNC(=O)C(C)NC(=O)C(N)Cc1ccc(O)cc1 (stereo not given) | > 100 | 
Cc1c(-c2nc(N)c(C#N)c(N)c2C#N)c(=O)oc2ccccc12 | > 100 | 
NC(=S)N/N=C(\CCC(=O)Nc1ccccc1[N+](=O)[O-])CC(=O)c1ccco1 | > 100 | 
O=[N+]([O-])/C=C/c1cc2ccc3ccccc3c2[nH]1 | 8.97 | 
O=C(O)CNCCc1ccccc1 | > 100 | 
CC(=O)OCC1OC([Se-])C(OC(C)=O)C(OC(C)=O)C1OC(C)=O.N#CCC[PH+](CCC#N)CCC#N.[Au+] (stereo not given) | 52.7 | 9.47
NCCCNc1nc2ccc(Cl)cc2c2c(=O)c3cc(F)ccc3sc12 | 20.7 | 7
